This is one part of the list.
Columns and labels:
[1] = test system: HSkMC (human skeletal muscle cells); assay: cytotoxicity call (relative viability < 0.9); settings: 10 µM
[2] = test system: HepG2; assay: cytotoxicity call (relative viability < 0.9); settings: 10 µM
[3] = test system: S. aureus RN4220; assay: growth inhibition call (relative growth <= 0.2); settings: 50 µM

Structure (SMILES) | cytotoxicity call [1] | cytotoxicity call [2] | growth inhibition call [3]
CO[C@H]1CN(C)C(=O)c2cc(NS(=O)(=O)CC(F)(F)F)ccc2OC[C@@H](C)N(Cc2cccnc2)C[C@H]1C | inactive | inactive | inactive
Cc1ccc(S(=O)(=O)Nc2ccc3c(c2)C(=O)N([C@@H](C)CO)C[C@H](C)[C@@H](CN(C)C(=O)NC2CCCCC2)OCCCC[C@@H](C)O3)cc1 | inactive | inactive | inactive
NS(=O)(=O)Cc1noc2ccccc12 | inactive | inactive | inactive
CS(=O)(=O)NCc1cnc2n1CCN(C[C@H]1CCOC1)CC2 | inactive | inactive | inactive
COc1ccc(S(=O)(=O)N(C)C[C@@H]2Oc3cc(-c4ccccc4OC)ccc3S(=O)(=O)N([C@H](C)CO)C[C@@H]2C)cc1 | inactive | active | inactive
CC(C)C#Cc1ccc2c(c1)O[C@@H](CN(C)C(=O)Cc1ccccn1)[C@@H](C)CN([C@H](C)CO)S2(=O)=O | inactive | inactive | inactive
NS(=O)(=O)c1ccc(NC(=O)C2CC2)cc1 | inactive | active | inactive
O=C(CCCCCCCC(=O)NCCO)NCCO | inactive | inactive | inactive
Nc1ncnc2c1ncn2C1OC(COP(=O)(O)O)C(O)C1O (stereo unspecified) | inactive | inactive | inactive
CNC(=O)C[C@@H]1CC[C@@H]2[C@H](COc3ccc(NC(=O)c4ccc(C(F)(F)F)cc4)cc3C(=O)N2C)O1 | inactive | inactive | inactive
NC1CCC(N2CCC3(CC2)CC(=O)N(Cc2cc(F)cc(F)c2)C3)CC1 (stereo unspecified) | inactive | inactive | inactive
C[C@H]1CN([C@@H](C)CO)C(=O)c2cc(NS(=O)(=O)c3cn(C)cn3)ccc2O[C@H]1CN(C)S(=O)(=O)c1ccccc1 | inactive | inactive | inactive
